Experimental data published in a compilation of properties of binary mixtures (doi:10.1021/acs.jced.2c00033).
The densities may have been worked out from excess volumes.

Assay: xn = mol fraction of the nth substance listed
Conditions: 100 kPa

O + CCCn1cc[n+](C)c1.[Br-]
x2 = 0
Conditions | mass density [kg/m3]
313.15 K | 992.5
323.15 K | 988.2

CC[n+]1ccn(C)c1.[Br-] + O
mass density [kg/m3]
Conditions | x1 = 0.049 | x1 = 0.0997 | x1 = 0.1466 | x1 = 0.1978 | x1 = 0.2501 | x1 = 0.3881 | x1 = 0.543
303.15 K | – | 1181.1 | 1228.6 | – | 1293.5 | 1338.4 | 1368.3
313.15 K | 1102.8 | 1175 | 1221.9 | 1257.2 | 1286.5 | 1331.5 | 1361.3
323.15 K | 1097.2 | 1168.6 | 1215.2 | 1250.2 | 1279.4 | 1324.4 | 1354.3
333.15 K | – | 1161.9 | 1208.2 | 1243.1 | 1272.2 | 1317.3 | 1347.2
343.15 K | 1083.3 | 1154.9 | 1201 | 1235.8 | 1264.9 | 1310.1 | 1340.2

CCCC[n+]1ccn(C)c1.[Br-] + O
mass density [kg/m3]
Conditions | x1 = 0.05 | x1 = 0.0992 | x1 = 0.1481 | x1 = 0.1979 | x1 = 0.2517 | x1 = 0.3882
303.15 K | – | – | 1190.9 | 1215.5 | 1233.1 | –
313.15 K | – | 1148.9 | 1183.7 | 1208.2 | 1225.8 | –
323.15 K | 1088.3 | 1141.8 | 1176.3 | 1200.9 | 1218.5 | –
333.15 K | – | – | 1168.8 | – | – | –
343.15 K | 1074.5 | 1126.9 | 1161.2 | 1185.8 | 1203.6 | 1235.2

O + CC[n+]1ccn(C)c1.[Br-]
x2 = 0
Conditions | mass density [kg/m3]
313.15 K | 992.5
333.15 K | 983.6

CCCn1cc[n+](C)c1.[Br-] + O
mass density [kg/m3]
Conditions | x1 = 0.0497 | x1 = 0.0992 | x1 = 0.149 | x1 = 0.1984 | x1 = 0.4005 | x1 = 0.5756 | x1 = 0.749
303.15 K | 1103 | 1167.3 | – | 1238.6 | – | 1322 | 1334.1
313.15 K | 1097.4 | 1160.7 | – | 1231.4 | 1292 | 1315 | 1327.2
323.15 K | – | 1153.8 | 1194.1 | 1224 | 1284.9 | 1307.9 | –
333.15 K | 1085.1 | 1146.8 | 1186.7 | 1216.6 | 1277.7 | 1300.9 | 1313.1
343.15 K | 1079.4 | 1139.5 | 1179.6 | 1209 | 1270.6 | 1294 | 1306.1

O + CCCC[n+]1ccn(C)c1.[Br-]
x2 = 0
Conditions | mass density [kg/m3]
313.15 K | 992.5
323.15 K | 988.2
333.15 K | 983.6
343.15 K | 978.2
